Among the data in the antibiotic and cytotoxicity screens of Wong et al. (2023) are cytotoxicity call values, retold here.

This is one part of the list.

In the experiment the test system is HSkMC (human skeletal muscle cells). Briefly: cytotoxicity call (relative viability < 0.9). The settings on record: 10 µM.
For `O=C(C[C@H]1C[C@@H]2c3cc(NC(=O)c4ccc5c(c4)OCO5)ccc3O[C@@H]2[C@H](CO)O1)NCc1cccnc1`, the cytotoxicity call is “inactive”.
Turning to `COc1ccc(NC(=O)Nc2ccc3c(c2)C(=O)N([C@H](C)CO)C[C@H](C)[C@H](CN(C)C(=O)c2ccccc2)OCCCC[C@@H](C)O3)cc1`, the cytotoxicity call was “inactive”.
Then `CN1C(=O)c2cc(NC(=O)Cc3cccs3)ccc2OC[C@@H]2O[C@H](CC(=O)NCc3ccc(-c4ccccc4)cc3)CC[C@@H]21`, with “inactive”; and `Cc1noc(C)c1S(=O)(=O)Nc1ccc2c(c1)CC(=O)N([C@H](C)CO)C[C@@H](C)[C@H](CN(C)S(=O)(=O)c1cccs1)O2`, with “inactive”; and `COc1ccc(S(=O)(=O)Nc2ccc3c(c2)C(=O)N([C@@H](C)CO)C[C@H](C)[C@@H](CN(C)S(=O)(=O)c2cn(C)cn2)O3)cc1`, with “inactive”.
Then `Cc1noc(C)c1NC(=O)Nc1ccc2c(c1)CC(=O)N([C@H](C)CO)C[C@H](C)[C@H](CN(C)S(=O)(=O)c1cccs1)O2`, with “inactive”; and `COc1ccc(S(=O)(=O)N(C)C[C@H]2Oc3c(NC(=O)c4ccncc4)cccc3C(=O)N([C@@H](C)CO)C[C@H]2C)cc1`, with “inactive”; and `Nc1nccc2c1ncn2[C@@H]1C=C(CO)[C@@H](O)[C@H]1O`, with “inactive”.
Then `C[C@H]1CN([C@@H](C)CO)C(=O)c2cc(NC(=O)Nc3cccc4ccccc34)ccc2O[C@@H]1CN(C)C(=O)Nc1ccc2c(c1)OCO2`, with “inactive”; and `COCC(=O)N1C[C@H](C)[C@@H](OC)CN(C)C(=O)c2cc(NC(=O)c3cc(C)on3)ccc2OC[C@@H]1C`, with “inactive”; and `Cc1cc(S(=O)(=O)N2CCCO[C@@H]2CNC(=O)C(=O)NCc2ccncc2)ccc1F`, with “inactive”.
For `NNCCc1ccccc1`, the cytotoxicity call is “inactive”.
Then `C[C@H](CO)N1C[C@H](C)[C@@H](CN(C)C(=O)Nc2ccc3c(c2)OCO3)OCCCC[C@H](C)Oc2ccc(NC(=O)Nc3ccccc3)cc2C1=O`, with “inactive”; and `C=CCOC(=O)[C@H]1[C@@H]2C(=O)O[C@@H](c3ccccc3)[C@@H](c3ccccc3)N2[C@@H](c2ccc(OCCOC(=O)[C@@H]3C[C@@H]4C(=O)N[C@@H](CC(C)C)C(=O)N4[C@@H]3c3ccc(O)cc3)cc2)[C@]12C(=O)Nc1ccccc12`, with “inactive”; and `C[C@@H]1CCCCO[C@H](CN(C)S(=O)(=O)c2cccs2)[C@H](C)CN([C@@H](C)CO)C(=O)c2cc(NS(C)(=O)=O)ccc2O1`, with “inactive”.
For `Cc1ccc(NC(=O)c2ccc(CN3CCN(C)CC3)cc2)cc1Nc1nccc(-c2cccnc2)n1`, the cytotoxicity call is “inactive”.
Then `Cc1noc(C)c1S(=O)(=O)N(C)C[C@H]1OCCCC[C@@H](C)Oc2ccc(NC(=O)Nc3ccc(C(F)(F)F)cc3)cc2C(=O)N([C@@H](C)CO)C[C@@H]1C`, with “inactive”; and `C[C@H]1CN([C@@H](C)CO)C(=O)c2cc(C#Cc3cccc(F)c3)cnc2O[C@@H]1CN(C)Cc1ccccn1`, with “inactive”.
For the compound `Cc1cc(=O)n2nc(C(=O)O)nc2[nH]1`, the cytotoxicity call is “inactive”.
Then `Cc1noc(C)c1NC(=O)N(C)C[C@H]1Oc2ccc(NS(=O)(=O)c3cn(C)cn3)cc2C(=O)N([C@@H](C)CO)C[C@H]1C`, with “inactive”.
Then `C=CC[C@H](CC(=O)NCCO)C(=O)N[C@H](COC(=O)[C@H](CC=C)CC(=O)OC(C)(C)C)Cc1c[nH]c2ccccc12`, with “inactive”; and `O=C(C[C@H]1C[C@H]2c3cc(NC(=O)Cc4ccncc4)ccc3O[C@H]2[C@@H](CO)O1)NCc1ccc2c(c1)OCO2`, with “inactive”; and `CC(C)NC(=O)Nc1ccc2c(c1)C(=O)N([C@H](C)CO)C[C@H](C)[C@@H](CN(C)S(=O)(=O)c1cn(C)cn1)OCCCC[C@@H](C)O2`, with “inactive”.
With `C[C@@H]1CN([C@@H](C)CO)C(=O)c2cc(NC(=O)CCCN(C)C)ccc2O[C@H]1CN(C)C(=O)NC1CCCCC1`, the cytotoxicity call was “inactive”.
As for `O=C(C[C@H]1CC[C@@H]2[C@H](COC[C@H](O)CN2C(=O)Nc2ccc(Cl)cc2)O1)NCCc1ccncc1`, the cytotoxicity call was “inactive”.
For `Cc1ccc(S(=O)(=O)N(C)C[C@@H]2Oc3c(NS(=O)(=O)c4ccccc4)cccc3C(=O)N([C@@H](C)CO)C[C@H]2C)cc1`, the cytotoxicity call was “inactive”.
Then `C[C@@H]1CN([C@@H](C)CO)C(=O)Cc2cc(NC(=O)c3ccncc3)ccc2O[C@@H]1CN(C)Cc1ccc(C(=O)O)cc1`, with “inactive”; and `Cc1ccc(S(=O)(=O)N(C)C[C@@H]2Oc3c(NS(=O)(=O)c4ccccc4)cccc3C(=O)N([C@@H](C)CO)C[C@@H]2C)cc1`, with “inactive”; and `C=C1[C@H]2C[C@@H]3C(=C4[C@H](CO[C@@H]4[C@H]4CCCN4S(=O)(=O)c4ccccc4[N+](=O)[O-])[C@H]4C(=O)N(C)C(=O)[C@H]43)C[C@@H]2C(=O)N1C`, with “inactive”.
Then `C[C@H](CO)N1C[C@H](C)[C@H](CN(C)Cc2ccc(-c3ccccc3)cc2)Oc2ccc(NS(=O)(=O)c3ccc(Cl)cc3)cc2C1=O`, with “active”; and `COc1ccc(NC(=O)N(C)C[C@@H]2OCCCC[C@H](C)Oc3ccc(NC(=O)NC(C)C)cc3C(=O)N([C@@H](C)CO)C[C@@H]2C)cc1`, with “inactive”; and `C[C@@H]1CN([C@@H](C)CO)C(=O)c2cc(NC(=O)Cc3ccccc3)ccc2O[C@@H](C)CCCCO[C@H]1CN(C)C(=O)Nc1ccccc1`, with “inactive”.
Then `C[C@H](CO)N1C[C@H](C)[C@@H](CN(C)S(=O)(=O)c2ccc(Cl)cc2)OCc2cn(nn2)CCCC1=O`, with “inactive”; and `C[C@H](CO)N1C[C@H](C)[C@H](CN(C)S(=O)(=O)c2ccc(F)cc2)Oc2ccc(NC(=O)Cn3cnnn3)cc2CC1=O`, with “inactive”.
With `O=C(Nc1ccccc1)Nc1ccccc1`, the cytotoxicity call was “inactive”.
Then `C=CCCCCCCCCC(=O)[O-].C=CCCCCCCCCC(=O)[O-].[Zn+2]`, with “inactive”; and `COc1cccc(S(=O)(=O)N(C)C[C@@H]2Oc3cc(Br)ccc3S(=O)(=O)N([C@@H](C)CO)C[C@@H]2C)c1`, with “inactive”; and `Cc1ccc(C#N)c(=O)[nH]1`, with “inactive”.
Then `COc1ccc(S(=O)(=O)Nc2ccc3c(c2)C(=O)N([C@H](C)CO)C[C@@H](C)[C@H](CN(C)Cc2ccncc2)O3)cc1`, with “inactive”; and `COc1ccc(S(=O)(=O)N(C)C[C@@H]2Oc3ccc(NS(=O)(=O)c4cccs4)cc3C(=O)N([C@H](C)CO)C[C@@H]2C)cc1`, with “inactive”.
